Data on 73 compounds can be found in PubChem BioAssay AID488969 (Vanderbilt High Throughput Screening Facility, 2010).

Whole data set: some 110,000 compounds, median “z-score” near -0.1, cut for the highest 2% near 2. Some of the results follow.

This test addresses Metabotropic glutamate receptor 8 (Rattus norvegicus) (UniProt P70579). Kind of test: rat mGluR8 modulators via GIRK flux, primary screen, cell-based, thallium flux, HTS (AID 488969). The note with it: HEK293 rat mGluR8, GIRK (G protein-gated inwardly rectifying potassium channel) thallium flux, FluoZin2; at 10 µM; stronger effect = higher value.
UniProt P70579, sequence (P70579 whole entry, looked up): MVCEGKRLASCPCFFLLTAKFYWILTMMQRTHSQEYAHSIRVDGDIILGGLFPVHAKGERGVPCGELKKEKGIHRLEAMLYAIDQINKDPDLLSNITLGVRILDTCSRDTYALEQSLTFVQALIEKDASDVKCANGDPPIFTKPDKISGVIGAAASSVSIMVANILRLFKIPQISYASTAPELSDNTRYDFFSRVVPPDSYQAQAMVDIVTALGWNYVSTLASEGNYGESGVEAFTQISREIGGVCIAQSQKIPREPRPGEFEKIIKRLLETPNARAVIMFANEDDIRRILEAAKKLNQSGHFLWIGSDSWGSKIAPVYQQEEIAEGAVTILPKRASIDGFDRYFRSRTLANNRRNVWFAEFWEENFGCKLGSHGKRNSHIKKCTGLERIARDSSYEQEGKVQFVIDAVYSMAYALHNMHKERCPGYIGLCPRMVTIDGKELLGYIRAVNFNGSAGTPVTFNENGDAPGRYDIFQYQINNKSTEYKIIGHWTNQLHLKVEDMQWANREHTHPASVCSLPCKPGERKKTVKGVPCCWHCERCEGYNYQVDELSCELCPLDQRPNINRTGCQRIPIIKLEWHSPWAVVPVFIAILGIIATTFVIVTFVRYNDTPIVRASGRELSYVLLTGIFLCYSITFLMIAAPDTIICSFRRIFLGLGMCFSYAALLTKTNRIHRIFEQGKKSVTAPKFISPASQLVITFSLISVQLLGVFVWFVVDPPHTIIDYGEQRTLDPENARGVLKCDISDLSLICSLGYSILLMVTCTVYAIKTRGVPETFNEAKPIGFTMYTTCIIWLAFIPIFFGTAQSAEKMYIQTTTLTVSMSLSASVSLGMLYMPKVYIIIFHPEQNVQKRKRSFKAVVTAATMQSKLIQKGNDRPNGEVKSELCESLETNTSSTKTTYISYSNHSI
`CC(C)CN(CC(C)C)c1ccc(C=C2C(=O)NC(=S)NC2=O)cc1[N+](=O)[O-]` came in with a z-score of 2.35.

Turning to `N=C(N)c1c(O)n(C2CCCCC2)c(=O)n(C2CCCCC2)c1=O`, the z-score is -0.146.

On to `CCC(=Nc1ccc(OC)cc1OC)c1c(O)n(C2CCCCC2)c(=O)[nH]c1=O`, for which the z-score is -0.386.

In the case of `O=c1c2ccccc2nc(-c2ccco2)n1-c1nccs1`, the z-score is -0.154.

As to `CC(C)OC12Oc3ccccc3C=C1N1CCC2CC1` (stereo not drawn), the z-score turned out to be 1.77.

`N#Cc1ccccc1Cn1cc(C(=O)c2ccco2)c2ccccc21` had a z-score of -0.818.

Consider `Clc1cccc(CN2CCCCC2c2cccnc2)c1` (stereo not drawn), for which the z-score is -0.113.

Compound `O=C(COC(=O)c1cccc(O)c1)Nc1ccc(Cl)cc1C(=O)c1ccccc1` registered a z-score of -0.689.

Turning to `CN(C)C(=O)On1c(-c2ccccc2)nc2ccc(Cl)cc21`, the z-score is -0.0178.

In turn, `CC[N+]12CCC(CC1)C(=C(c1ccccc1)c1ccccc1)C2` registered a z-score of 0.015.

Compound `COc1nc2ccccc2c(=O)n1-c1ccc(C)cc1` had a z-score of -0.0243.

Consider `Cc1ccccc1C1=NCC(=O)N(CC(=O)NCc2ccco2)c2sc3c(c21)CCCC3`, for which the z-score was -1.01.

Turning to `CC(C)(C)P(=O)(c1ccncc1)N1CCCC1` (stereo not drawn), the z-score came out at 0.609.

On to `CN1c2ccccc2Oc2ccccc21`, for which the z-score was 0.102.

Consider `CSc1ncc(/C=C2/C(=O)NC(=O)N(C)C2=O)cn1`, for which the z-score was -0.494.

In turn, `COc1cccc(-n2c(CN3CCN(C)CC3)nc3ccc([N+](=O)[O-])cc3c2=O)c1` came in with a z-score of 0.000822.

As to `O=P(NCc1ccccc1)(Oc1ccccc1)Oc1ccccc1`, the z-score was determined as 0.167.

`CN1CCN(Cc2nc3ccccc3c(=O)[nH]2)CC1` registered a z-score of 0.227.

For `CC1(C)COC(Nc2cccc(Cl)c2)=N1`, the z-score was -0.099.

For the compound `Cc1ccc(-c2nc3ccccc3c(=O)n2-c2ccccn2)cc1`, the z-score amounted to 0.803.

`Cc1c(N=Cc2c(O)n(Cc3ccc(F)cc3)c(=O)[nH]c2=O)c(=O)n(-c2ccccc2)n1C` showed a z-score of -0.0628.

`COCCOC(=O)c1c(C)n(C)c2ccc(OC(=O)N(C)C)cc12` gave a z-score of -0.166.

Consider `CN1C(=O)C(C2(C#N)CCCCC2)C(=O)N(C)C1=O`, for which the z-score came out at 0.28.

`CCC(=NCCCN(C)C)c1c(O)n(-c2ccc(OC)cc2)c(=O)[nH]c1=O` returned a z-score of -0.142.

On to `O=c1[nH]c(=O)n(Cc2ccco2)c(O)c1/C=N/N1CCCCCC1`, for which the z-score is -0.29.

In turn, `Cc1sc2nc(COC(=O)Cc3ccccc3)[nH]c(=O)c2c1C` displayed a z-score of -0.211.

Take `Cc1ccccc1-n1c(O)c(C=NCCN2CCOCC2)c(=O)[nH]c1=O`: the z-score worked out at 0.0309.

Compound `Cc1cccc(-n2c(-c3cccs3)nc3ccccc3c2=O)c1` displayed a z-score of 0.057.

In turn, `Cn1c(O)c(C(c2ccccn2)c2c(O)n(C)c(=S)n(C)c2=O)c(=O)n(C)c1=S` showed a z-score of -0.286.

Turning to `CCCCCCn1c(O)c(C(C)=NC)c(=O)[nH]c1=O`, the z-score turned out to be 0.0549.

Take `CCC(=O)Nc1ccc(N2CCN(CC)CC2)c(Cl)c1`: the z-score is -0.0635.

`CC(=O)N1CCN(c2ccc([N+](=O)[O-])cc2C=C2C(=O)NC(=O)NC2=O)CC1` came in with a z-score of -0.975.

In the case of `CCn1cc(C(=O)c2cccs2)c2ccccc21`, the z-score was -1.08.

`Fc1ccc(CNCCc2ccccc2F)cc1` came in with a z-score of 0.667.

On to `CCN1CCN(S(=O)(=O)c2cnc(Cl)c(Br)c2)CC1`, for which the z-score is 0.452.

Turning to `Cc1ccc(N2C(=O)NC(=O)/C(=C\c3ccc(N4CCOCC4)cc3)C2=O)cc1`, the z-score is -0.0394.

`O=c1[nH]c(=O)n(Cc2ccccc2)c(O)c1C=NCCN1CCNCC1`: the z-score was determined as 0.607.

The compound `Cc1cc(Cl)ccc1OCCCC(=O)NCc1cccs1` registered a z-score of 1.35.

Compound `CCC(=NCc1cc(OC)cc(OC)c1)c1c(O)n(C)c(=O)n(C)c1=O` had a z-score of -0.377.

Compound `O=C(NC(=C(Cl)Cl)P(=O)(c1ccccc1)c1ccccc1)c1ccccc1` came in with a z-score of -0.29.

In turn, `CC1CCCN(C(=O)CCl)C1` (stereo not drawn) returned a z-score of -0.18.

`CCOC(=O)C(O)(c1ccc(NC(=O)Oc2ccccc2)cc1)C(F)(F)F` (stereo not drawn): the z-score is 0.272.

Compound `CC(=O)NC(C)Cc1ccccc1` (stereo not drawn) yielded a z-score of 0.13.

For the compound `O=C(O)c1ccc(Cl)nc1`, the z-score is -0.197.

Consider `O=c1[nH]c(=O)n(Cc2ccco2)c(O)c1/C=N/N1CCCCC1`, for which the z-score was -0.142.

`COc1ccc(N2C(=O)NC(=O)C(CCc3ccncc3)(CCc3ccncc3)C2=O)cc1` registered a z-score of -0.651.

With `COc1ccc(NC(=O)c2c(C)nn(Cc3ccccc3Cl)c2Cl)cc1Cl`, the z-score was 0.0244.

`CC1CCC(NCC(O)c2ccccc2)CC1` (stereo not drawn): the z-score stood at 0.108.

The compound `CC[n+]1c(/C=C/N(C)c2ccccc2)sc2ccc(Cl)cc21` came in with a z-score of 0.47.

On to `CC(Cc1ccccc1)NC(=O)/C=C/c1ccc(Cl)cc1` (stereo not drawn), for which the z-score is -0.151.

In the case of `Cc1nc2nc(SCC(=O)N3CCC4(CC3)OCCO4)nn2c(C)c1Cc1ccccc1`, the z-score is -0.882.

The compound `CN(C=O)CP(=O)(O)CN(C)C=O` registered a z-score of 0.0217.

In the case of `CCN1CCN(C(=O)COc2ccc(S(=O)(=O)N(C)Cc3ccccc3)cc2)CC1`, the z-score was 0.0709.

In the case of `O=C1NC(=O)N(Cc2ccccc2)C(=O)/C1=C/N1CCCc2ccccc21`, the z-score is -0.761.

Take `CC(=O)c1c(C)n(C(C)C)c2ccc(O)cc12`: the z-score is -0.0157.

`Cn1c(O)c(C=NC2CC(C)(C)NC(C)(C)C2)c(=O)n(C)c1=O` gave a z-score of -0.112.

On to `Cc1sc2c(c1C)C(c1ccc(C(C)(C)C)cc1)=NCC(=O)N2CC(=O)Nc1nccs1`, for which the z-score is -1.06.

Take `CN1C(=O)C(=Cc2ccccc2OCc2ccc(Cl)cc2)C(=O)N(C)C1=O`: the z-score is -0.415.

Compound `CC1=NN(c2ccccc2)C(=O)C1/C=C1/C(=O)NC(=O)N(c2cccc(C)c2)C1=O` (stereo not drawn) yielded a z-score of -0.395.

`CN(C)S(=O)(=O)c1cc(NC(=O)C[N+]23CCN(CC2)CC3)ccc1Cl`: the z-score is -0.0344.

Take `CN1CCN(c2ccc([N+](=O)[O-])c(N/N=C3\CN4CCC3CC4)c2)CC1`: the z-score is -0.0741.

For the compound `Cc1cc(C)n2nc(C)[n+](C)c2n1`, the z-score is -0.472.

In turn, `CCN(CC)CCCN=Cc1c(O)n(-c2cccc(C)c2C)c(=O)[nH]c1=O` came in with a z-score of 0.0751.

For `Cc1occc1C(=O)N1CCC2(CC1)OCCO2`, the z-score is -0.343.

`O=C1C2CCCN2C(c2cccs2)N1c1ccccn1` (stereo not drawn) gave a z-score of 0.469.

As for `Cc1cc([P+](=O)O)c(C)n1-c1ccc(Br)cc1`, the z-score stood at 0.727.

As for `CCOc1cccc(CNC2CN3CCC2CC3)c1` (stereo not drawn), the z-score amounted to 0.201.

As to `COC(=NC1CCCC1)C(O)c1c[nH]c2ccccc12` (stereo not drawn), the z-score was -0.179.

Compound `CCC(CC)C1C(C#N)=C(N)Oc2c1c(=O)oc1ccccc21` (stereo not drawn) displayed a z-score of -0.103.

`Cc1ccc(/C=C2/C(=O)NC(=O)N(CC3CCCO3)C2=O)s1` (stereo not drawn) gave a z-score of -0.582.

Take `Cc1cc(OCc2ccc([N+](=O)[O-])cc2)c2c3c(c(=O)oc2c1)CCCC3`: the z-score was -0.103.

In turn, `Clc1ccccc1CN1CCN(c2ccccc2Cl)CC1` returned a z-score of 0.841.

Regarding `N/C(=N\[N+](=O)[O-])N/N=C/c1ccc(O)cc1`, the z-score is -0.249.
